# Results from the supplement of paper PMC11417369.
# ± gives the standard deviation of the averaged measurements. Some of the results follow.
# Tested on: PfAP2-LT AP2 domain (GST-tagged)
# Test: gcPBM binding intensity (ln(normalized median fluorescence intensity)); higher = stronger DNA binding
# Summary of the method: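 GST-fused DNA-binding domains of P. falciparum, expressed in E. coli, were applied at about 25 μg on average for 1 h to an Agilent 4 × 180k array of primer-extended double-stranded 36-bp intergenic genomic probes and negative controls. Binding intensity is the highest Masliner-normalised natural-log median intensity across replicate spots of either probe orientation, measured with Alexa488 anti-GST antibody and a 488 nm scan.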
row,Sequence,gcPBM binding intensity (ln)
1,ATTTATTTCTATAATACACACAAATATCTTAATTAA [CACACA_site7801],8.69 ± 0.52
2,GGTAATTATTTTGGTTGTACTCAAATATATAATATT [XGTACX_site291],8.89 ± 0.23
3,AAACATAAAGAAAAAAAAAATATATATTTATTTATT [GTGCAC_negctrl_site357],8.46 ± 0.52
4,TATATGTTATATTGGACACACACAATAAACATTATG [CACACA_site8480],9.21 ± 0.38
5,ATATATTAACAAAAGGTGCTTTTGGCAAAGTATAAT,8.95 ± 0.44
6,ATAAAAATGGTGTTAACACACACATATATATATATA [CACACA_site8089],9.64 ± 0.17
7,TTATTTAAATATTGATGTACTCTCCTTATTATAATA [XGTACX_site1240],8.57 ± 0.52
8,TTAATTAAAATTTATACATGCATAAAAGAAATACAC [TGCATGCA_site537],8.87 ± 0.46
9,ATTACATGTTACTTAACACACATCTGGTGAAATAAT [CACACA_site171],8.93 ± 0.34
10,ATTTTTTTCTTTTCTTTTTTCTTTTTTTTTTTTGGT [CACACA_negctrl_site1146],8.61 ± 0.7
11,GTAATGAAACATTGCACACATATAATAATATAATAT [CACACA_site1422],9.26 ± 0.35
12,TTGTATACATAAAATGGTACAGAATATATAATTCTA [XGTACX_site7236],8.63 ± 0.4
13,TTTAAGAGTTGCACACGTACAAAAAAAAAAAAAAAA [XGTACX_site7406],8.76 ± 0.49
14,ATAAGATGATGGAACTGTAATATATATATATATATA [CACACA_negctrl_site839],9.39 ± 0.19
15,GTATACCAACATATTATACACACCTTTATATTTTTT [CACACA_site2153],8.91 ± 0.45
16,TGCAACAAAATAAACACACACACACCCCCACAAAAA [CACACA_site3388],10.36 ± 0.057
17,AATAAAAAAATAAAATGTACATACAAATAAATAAAT [XGTACX_site5153],9.03 ± 0.48
18,TATTTTAATGAAGCATTTAAGGGAAAAAAAAAAAAA [TGCATGCA_negctrl_site606],8.21 ± 0.33
19,TTATACTGTTTCAGAAAAATAAAGAATGAAAGTATT [XGTACX_negctrl_site230],8.58 ± 0.44

row,Sequence,gcPBM binding intensity (ln)
1,TTTTTATATTCCCCCAGTACATATATAATAGTAGTA [XGTACX_site7927],9.08 ± 0.3
2,AAGTAATACAACACGCACATATATATATATATATAT [GTGCAC_negctrl_site89],10.3 ± 0.25
3,TACCTAAATAAATGGACACACACATATATATATATA [CACACA_site8407],9.79 ± 0.21
4,TTATAGCCTGTGAAGAGTACATTTTTATTTTTTATT [XGTACX_site4105],8.66 ± 0.41
5,TATTTTTAAATATAAAGTACTTATATTAACTACGAA [XGTACX_site1524],8.27 ± 0.44
6,ATTTTTTCTGTCTTAATTGGACCCACTGCAAATGGG [CACACA_negctrl_site1158],8.41 ± 0.48
7,ATAATACAAAAAAAAAAAAAAAATAAAATAATAAAA [GTGCAC_negctrl_site722],8.51 ± 0.64
8,ATATATATGCATATATGTACTTAAAATATAAAGGCA [XGTACX_site3256],8.9 ± 0.48
9,TTCATATATTTTAAAGCATGCATTCATCTTATAGTT [TGCATGCA_site800],8.79 ± 0.41
10,TTTACGCTATAGGAGAGTACTTATAAAATCCTGTGT [XGTACX_site2364],8.74 ± 0.52
11,TATTTTTCCATTGGGGGTACATGTGTTATATTTATT [XGTACX_site5914],9.63 ± 0.26
12,TACAAAATATATATGACACACACAAAAAAAGTATAT [CACACA_site8455],9.47 ± 0.43
13,AGACGAAAATAATAAAGTACTAAAAAAAAAAAAAAA [XGTACX_site927],8.56 ± 0.56
14,AATAAATTATTTATTGCATGTAATATGAATATTTTT [TGCATGCA_site798],8.51 ± 0.37
15,ATATATTTTATTCCTATATATATATATATATATATA [GTGCAC_negctrl_site556],9.11 ± 0.19
16,TAATGTATGAAATAAACACACAAGTAAGTACATAAA [CACACA_site2451],9.19 ± 0.36
17,CATTATGTCATAAATGCACACATATACATTGTTTTG [CACACA_site8118],9.21 ± 0.32
18,AGAAAAAAAATATACACACATACGATCATACATATG [CACACA_site2171],9.24 ± 0.47
19,ACCTCTTTGAAATATACACACTAAACATATCAACTT [CACACA_site5372],9.04 ± 0.4

row,Sequence,gcPBM binding intensity (ln)
1,TACATAGAGTTTGTTTGTACTCATATGCGTAAATTC [XGTACX_site4810],8.75 ± 0.41
2,TCTGTAGTTTTTTACAGTACTTTTAGGTAATACATA [XGTACX_site7417],8.59 ± 0.4
3,AAAACACCCAAACACACACACACATATATATATATA [CACACA_site9119],10.2 ± 0.35
4,TTCTTGTATTTTCATAGTACATATAATGTCGTGTTA [XGTACX_site7714],9.02 ± 0.43
5,TTTCTTTTTTTTTTTTTTTCTGGCTTTTTCTCTTTT [TGCATGCA_negctrl_site599],8.69 ± 0.49
6,TTTTTATTTTTTTTATGTACACAAATGATATACATA [XGTACX_site5910],8.6 ± 0.51
7,AGGATACACGGACACACACACATATAGATTTATATA [CACACA_site6552],9.78 ± 0.51
8,TTCTGAACAAAATTATATATTTATTTTTATTTTCAT [CACACA_negctrl_site422],8.48 ± 0.5
9,ATTATTTTTCTATGTGTGCACGTGTGGAATGTGTCT [GTGCAC_site9507],9.38 ± 0.33
10,TATATTACTTAAAATACACACCATGGAAAAGTTTTA [CACACA_site5443],8.74 ± 0.37
11,ATATTTATATTTGTATGTACTTAAGTTTGTATGTAT [XGTACX_site3608],9.04 ± 0.43
12,ATATATTAGGGCAAATTTTCTGACATTACATCAGTC [CACACA_negctrl_site1166],8.66 ± 0.4
13,TATTTTTCTTTTTTCTGTACTCACACAAATAGAAGG [XGTACX_site7329],8.57 ± 0.39
14,CGTAAATTTTTTAAAAGTACAAAAAGATACGAGAAA [XGTACX_site8722],8.58 ± 0.48
15,TAAACAAATAAATAAACACACAATATATGTATATAT [CACACA_site3803],9.05 ± 0.38
16,TGTGTTAAATGTAATAGTGAATAAATAATTTTAACA [TGCATGCA_negctrl_site161],8.53 ± 0.55
17,AAAATGAATATAATGACGCACACTTAAAATTGTTAA [CACACA_site2509],8.92 ± 0.44
18,TTTTTTAGAAAAAGTTGTACTTTTTTTTTTTTTTTT [XGTACX_site535],8.14 ± 0.53
